Assay results from the supplement of paper PMC8728848.
Some of the results follow.

How the values were obtained:
Assay in all cases: glycan array binding signal (z-score within array); higher = stronger binding
Conditions in all cases: glycan notation: IUPAC condensed, linker removed
[1] = biological target: GlcNAc(b1-2)Man(a1-3)[Man(a1-3)[Man(a1-6)]Man(a1-6)][GlcNAc(b1-4)]Man(b1-4)GlcNAc(b1-4)GlcNAc
Procedure, shortened: (§1)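 From the Consortium for Functional Glycomics database, 3228 arrays were curated, keeping only those whose protein sequence was available. Binding is given as a within-array Z-score averaged across arrays sharing a protein sequence and across linkers. Negative Z-scores can be read as non-binding.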

[2] = biological target: GlcNAc(b1-2)[GlcNAc(b1-4)]Man(a1-3)[GlcNAc(b1-2)Man(a1-6)][GlcNAc(b1-4)]Man(b1-4)GlcNAc(b1-4)GlcNAc
Procedure, shortened: as §1

[3] = biological target: GlcNAc(b1-2)[GlcNAc(b1-4)]Man(a1-3)[GlcNAc(b1-2)[GlcNAc(b1-4)][GlcNAc(b1-6)]Man(a1-6)][GlcNAc(b1-4)]Man(b1-4)GlcNAc(b1-4)GlcNAc
Procedure, shortened: as §1

[4] = biological target: GlcNAc(b1-2)[GlcNAc(b1-4)]Man(a1-3)[GlcNAc(b1-2)[GlcNAc(b1-6)]Man(a1-6)]Man(b1-4)GlcNAc(b1-4)GlcNAc
Procedure, shortened: as §1

[5] = biological target: GlcNAc(b1-3)Fuc
Procedure, shortened: as §1

[6] = biological target: GlcNAc(b1-3)Gal(b1-4)Glc
Procedure, shortened: as §1

[7] = biological target: GlcNAc(b1-3)[GlcNAc(b1-6)]Gal
Procedure, shortened: as §1

[8] = biological target: GlcNAc(b1-3)[GlcNAc(b1-6)]Gal(b1-4)GlcNAc(b1-3)[GlcNAc(b1-6)]Gal(b1-4)GlcNAc(b1-3)Gal(b1-4)Glc
Procedure, shortened: as §1

[9] = biological target: GlcNAc(b1-4)Fuc
Procedure, shortened: as §1

[10] = biological target: GlcNAc(b1-4)GlcNAc
Procedure, shortened: as §1

[11] = biological target: GlcNAc(b1-4)GlcNAc(b1-4)GlcNAc
Procedure, shortened: as §1

[12] = biological target: GlcNAc(b1-4)GlcNAc(b1-4)GlcNAc(b1-4)GlcNAc
Procedure, shortened: as §1

[13] = biological target: GlcNAc(b1-4)GlcNAc(b1-4)GlcNAc(b1-4)GlcNAc(b1-4)GlcNAc
Procedure, shortened: as §1

[14] = biological target: GlcNAc(b1-4)GlcNAc(b1-4)GlcNAc(b1-4)GlcNAc(b1-4)GlcNAc(b1-4)GlcNAc
Procedure, shortened: as §1

[15] = biological target: GlcNAc(b1-4)GlcNAc(b1-4)GlcNAc(b1-4)GlcNAc(b1-4)GlcNAc(b1-4)GlcNAc(b1-4)GlcNAc
Procedure, shortened: as §1

[16] = biological target: GlcNAc(b1-4)GlcNAc(b1-4)GlcNAc(b1-4)GlcNAc(b1-4)GlcNAc(b1-4)GlcNAc(b1-4)GlcNAc(b1-4)GlcNAc
Procedure, shortened: as §1

[17] = biological target: HexA(a1-3)GalNAc4S(b1-4)GlcA(b1-3)GalNAc4S
Procedure, shortened: as §1

[18] = biological target: HexA(a1-3)GalNAc4S(b1-4)GlcA(b1-3)GalNAc4S(b1-4)GlcA(b1-3)GalNAc4S(b1-4)GlcA(b1-3)GalNAc4S(b1-4)GlcA(b1-3)GalNAc4S(b1-4)GlcA(b1-3)GalNAc4S(b1-4)GlcA(b1-3)GalNAc4S
Procedure, shortened: as §1

[19] = biological target: HexA(a1-3)GalNAc4S(b1-4)IdoA(a1-3)GalNAc4S
Procedure, shortened: as §1

[20] = biological target: HexA(a1-3)GalNAc4S(b1-4)IdoA(a1-3)GalNAc4S(b1-4)IdoA(a1-3)GalNAc4S(b1-4)IdoA(a1-3)GalNAc4S(b1-4)IdoA(a1-3)GalNAc4S(b1-4)IdoA(a1-3)GalNAc4S(b1-4)IdoA(a1-3)GalNAc4S
Procedure, shortened: as §1

[21] = biological target: HexA(a1-3)GalNAc6S(b1-4)GlcA(b1-3)GalNAc6S
Procedure, shortened: as §1

[22] = biological target: HexA(a1-3)GalNAc6S(b1-4)GlcA(b1-3)GalNAc6S(b1-4)GlcA(b1-3)GalNAc6S(b1-4)GlcA(b1-3)GalNAc6S(b1-4)GlcA(b1-3)GalNAc6S(b1-4)GlcA(b1-3)GalNAc6S(b1-4)GlcA(b1-3)GalNAc6S
Procedure, shortened: as §1

[23] = biological target: HexA2S(a1-4)GlcNS6S
Procedure, shortened: as §1

[24] = biological target: HexA6S(a1-4)GlcNS6S(a1-4)IdoA2S(a1-4)GlcNS6S
Procedure, shortened: as §1

[25] = biological target: HexA6S(a1-4)GlcNS6S(a1-4)IdoA2S(a1-4)GlcNS6S(a1-4)IdoA2S(a1-4)GlcNS6S(a1-4)IdoA2S(a1-4)GlcNS6S(a1-4)IdoA2S(a1-4)GlcNS6S(a1-4)IdoA2S(a1-4)GlcNS6S(a1-4)IdoA2S(a1-4)GlcNS6S
Procedure, shortened: as §1

[26] = biological target: Man(a1-2)Man
Procedure, shortened: as §1

[27] = biological target: Man(a1-2)Man(a1-2)Man(a1-3)[Man(a1-2)Man(a1-3)[Man(a1-2)Man(a1-6)]Man(a1-6)]Man(b1-4)GlcNAc(b1-4)GlcNAc
Procedure, shortened: as §1

[28] = biological target: Man(a1-2)Man(a1-2)Man(a1-3)[Man(a1-2)Man(a1-6)[Man(a1-3)]Man(a1-6)]Man(b1-4)GlcNAc(b1-4)GlcNAc
Procedure, shortened: as §1

[29] = biological target: Man(a1-2)Man(a1-2)Man(a1-3)[Man(a1-3)[Man(a1-6)]Man(a1-6)]Man(b1-4)GlcNAc(b1-4)GlcNAc
Procedure, shortened: as §1

[30] = biological target: Man(a1-2)Man(a1-3)[Man(a1-2)Man(a1-6)[Man(a1-3)]Man(a1-6)]Man(b1-4)GlcNAc(b1-4)GlcNAc
Procedure, shortened: as §1

[31] = biological target: Man(a1-2)Man(a1-3)[Man(a1-3)[Man(a1-6)]Man(a1-6)]Man(b1-4)GlcNAc(b1-4)GlcNAc
Procedure, shortened: as §1

[32] = biological target: Man(a1-3)Man
Procedure, shortened: as §1

[33] = biological target: Man(a1-3)Man(a1-6)[Man(a1-3)]Man(b1-4)GlcNAc(b1-4)GlcNAc
Procedure, shortened: as §1

[34] = biological target: Man(a1-3)Man(b1-4)GlcNAc
Procedure, shortened: as §1

[35] = biological target: Man(a1-3)[Man(a1-6)]Man
Procedure, shortened: as §1

[36] = biological target: Man(a1-3)[Man(a1-6)]Man(a1-6)Man(b1-4)GlcNAc(b1-4)GlcNAc
Procedure, shortened: as §1

[37] = biological target: Man(a1-3)[Man(a1-6)]Man(a1-6)[Man(a1-3)]Man
Procedure, shortened: as §1

[38] = biological target: Man(a1-3)[Man(a1-6)]Man(a1-6)[Man(a1-3)]Man(b1-4)GlcNAc(b1-4)GlcNAc
Procedure, shortened: as §1

[39] = biological target: Man(a1-3)[Man(a1-6)]Man(b1-4)GlcNAc(b1-4)GlcNAc
Procedure, shortened: as §1

[40] = biological target: Man(a1-3)[Man(a1-6)]Man(b1-4)GlcNAc(b1-4)[Fuc(a1-6)]GlcNAc
Procedure, shortened: as §1

[41] = biological target: Man(a1-6)Man
Procedure, shortened: as §1

[42] = biological target: Man(a1-6)Man(b1-4)GlcNAc(b1-4)GlcNAc
Procedure, shortened: as §1

[43] = biological target: Man(b1-4)GlcNAc
Procedure, shortened: as §1

[44] = biological target: Man(b1-4)Man(b1-4)Man(b1-4)Man
Procedure, shortened: as §1

[45] = biological target: Man(b1-4)Man(b1-4)Man(b1-4)Man(b1-4)Man
Procedure, shortened: as §1

B1: MIC4-A5 (Toxoplasma gondii), Q9XZH7 (protein)
chain: SPDFHDEVECVHTGNIGSKAQTIGEVKRASSLSECRARCQAEKECSHYTYNVKSGLCYPKRGKPQFYKYLGDMTGSRTCDTS
In the case of B1, the “glycan array binding signal (z-score)” value [1] is reported as -0.323, the “glycan array binding signal (z-score)” value [2] is reported as -0.322 and the “glycan array binding signal (z-score)” value [3] is reported as 0.308. The “glycan array binding signal (z-score)” value [4] was -0.323, the “glycan array binding signal (z-score)” value [5] was -0.315 and the “glycan array binding signal (z-score)” value [6] was -0.323. For the same binder, the “glycan array binding signal (z-score)” value [7] was -0.323, the “glycan array binding signal (z-score)” value [8] was -0.312 and the “glycan array binding signal (z-score)” value [9] was -0.302. For the same binder, the “glycan array binding signal (z-score)” value [10] was -0.323, the “glycan array binding signal (z-score)” value [11] was -0.323 and the “glycan array binding signal (z-score)” value [12] was -0.323. The “glycan array binding signal (z-score)” value [13] was -0.323, the “glycan array binding signal (z-score)” value [14] was -0.323 and the “glycan array binding signal (z-score)” value [15] was -0.323. For the same binder, the “glycan array binding signal (z-score)” value [16] was -0.323, the “glycan array binding signal (z-score)” value [17] was -0.323 and the “glycan array binding signal (z-score)” value [18] was -0.323. For the same binder, the “glycan array binding signal (z-score)” value [19] was -0.323, the “glycan array binding signal (z-score)” value [20] was -0.323 and the “glycan array binding signal (z-score)” value [21] was -0.323. The “glycan array binding signal (z-score)” value [22] was -0.323, the “glycan array binding signal (z-score)” value [23] was -0.323 and the “glycan array binding signal (z-score)” value [24] was -0.323. The “glycan array binding signal (z-score)” value [25] was -0.319, the “glycan array binding signal (z-score)” value [26] was -0.323 and the “glycan array binding signal (z-score)” value [27] was -0.323. For the same binder, the “glycan array binding signal (z-score)” value [28] was -0.323, the “glycan array binding signal (z-score)” value [29] was -0.323 and the “glycan array binding signal (z-score)” value [30] was -0.323. For the same binder, the “glycan array binding signal (z-score)” value [31] was -0.323, the “glycan array binding signal (z-score)” value [32] was -0.323 and the “glycan array binding signal (z-score)” value [33] was -0.317. The “glycan array binding signal (z-score)” value [34] was -0.323, the “glycan array binding signal (z-score)” value [35] was -0.323 and the “glycan array binding signal (z-score)” value [36] was -0.323. For the same binder, the “glycan array binding signal (z-score)” value [37] was -0.323, the “glycan array binding signal (z-score)” value [38] was -0.323 and the “glycan array binding signal (z-score)” value [39] was -0.323. For the same binder, the “glycan array binding signal (z-score)” value [40] was -0.321, the “glycan array binding signal (z-score)” value [41] was -0.323 and the “glycan array binding signal (z-score)” value [42] was -0.323. For the same binder, the “glycan array binding signal (z-score)” value [43] was -0.323, the “glycan array binding signal (z-score)” value [44] was -0.323 and the “glycan array binding signal (z-score)” value [45] was -0.323.
